Results taken from the supplement of paper PMC7125110.
± gives the standard error. This sample is rich in variants without activity.

B1: glmS ribozyme (parent)
chain: AUAAAAGCGCCAGAACUACAGAAAUGUAGUUGACGAGGAGGAGGUUUAUCGAAUUUUCGGCGGAUGCCUCCAAA

Tests used:
Details in all cases: with glucosamine-6-phosphate
[1] = variants of: B1; test: self-cleavage kobs at 40 uM GlcN6P; higher = faster cleavage; RNA array
Procedure, shortened: (§1)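 Barcoded ribozyme variants were transcribed in situ on sequenced MiSeq chips by E. coli RNA polymerase. At 37 °C, a hybridised Cy3 probe tracked them while glucosamine-6-phosphate (40 μM to 10 mM) in HEPES/KCl/Mg(OAc)2 buffer flowed in and tiles were imaged over ~14 h. Per-tile medians of signals normalised to baseline and to non-cleaving reference variants were fit to one- or two-exponential decays, giving kobs. kcat and KM came from weighted Michaelis–Menten fits across concentrations.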

[2] = variants of: B1; test: self-cleavage kobs at 640 uM GlcN6P; higher = faster cleavage; RNA array
Procedure, shortened: as §1

[3] = variants of: B1; test: self-cleavage kobs at 160 uM GlcN6P; higher = faster cleavage; RNA array
Procedure, shortened: as §1

[4] = variants of: B1; test: self-cleavage kobs at 2500 uM GlcN6P; higher = faster cleavage; RNA array
Procedure, shortened: as §1

[5] = variants of: B1; test: self-cleavage kobs at 10000 uM GlcN6P; higher = faster cleavage; RNA array
Procedure, shortened: as §1

| Variant | self-cleavage kobs at 40 uM GlcN6P [1] | self-cleavage kobs at 640 uM GlcN6P [2] | self-cleavage kobs at 160 uM GlcN6P [3] | self-cleavage kobs at 2500 uM GlcN6P [4] | self-cleavage kobs at 10000 uM GlcN6P [5] |
| --- | --- | --- | --- | --- | --- |
| C50G G66A C70A | 7.79e-05 ± 2.3e-05 s⁻¹ |  |  |  |  |
| C50G U69G | 0.000135 ± 1.6e-05 s⁻¹ | 0.000151 ± 2.4e-05 s⁻¹ | 0.000165 ± 3e-05 s⁻¹ | 0.000126 ± 2e-05 s⁻¹ | 0.000141 ± 1.5e-05 s⁻¹ |
| C50U G60C | < 1e-05 s⁻¹ |  | < 1e-05 s⁻¹ |  | < 1e-05 s⁻¹ |
| C50U G60U C70U | < 1e-05 s⁻¹ |  |  |  |  |
| G51A A64C | < 1e-05 s⁻¹ |  | < 1e-05 s⁻¹ | < 1e-05 s⁻¹ |  |
| G51A G62A | < 1e-05 s⁻¹ |  |  |  |  |
| G51C C71A | < 1e-05 s⁻¹ | < 1e-05 s⁻¹ | < 1e-05 s⁻¹ |  | < 1e-05 s⁻¹ |
| G51C G63C | < 1e-05 s⁻¹ |  | < 1e-05 s⁻¹ | < 1e-05 s⁻¹ | < 1e-05 s⁻¹ |
| G51U G60C C70G | < 1e-05 s⁻¹ |  |  |  |  |
| A52C A53G | < 1e-05 s⁻¹ | < 1e-05 s⁻¹ | < 1e-05 s⁻¹ | < 1e-05 s⁻¹ | < 1e-05 s⁻¹ |
| A52C C67U | < 1e-05 s⁻¹ |  |  |  |  |
| A52C G60A C68U | < 1e-05 s⁻¹ |  |  |  | < 1e-05 s⁻¹ |
| A52C U57A G63C | < 1e-05 s⁻¹ |  | < 1e-05 s⁻¹ |  | < 1e-05 s⁻¹ |
| A52G C58U | < 1e-05 s⁻¹ |  | < 1e-05 s⁻¹ |  |  |
| A52G G59U | < 1e-05 s⁻¹ | < 1e-05 s⁻¹ |  |  |  |
| A52G U55A C68U C71G | < 1e-05 s⁻¹ |  |  |  |  |
| A52U A53C | < 1e-05 s⁻¹ | < 1e-05 s⁻¹ | < 1e-05 s⁻¹ |  | < 1e-05 s⁻¹ |
| A52U A53G C61U | < 1e-05 s⁻¹ |  |  |  |  |
| A52U C61G | < 1e-05 s⁻¹ |  | < 1e-05 s⁻¹ |  | < 1e-05 s⁻¹ |
| A52U C61U | < 1e-05 s⁻¹ | < 1e-05 s⁻¹ | < 1e-05 s⁻¹ |  | < 1e-05 s⁻¹ |
| A52U G59A C61G | < 1e-05 s⁻¹ |  |  | < 1e-05 s⁻¹ |  |
| A52U G59C G63C | < 1e-05 s⁻¹ |  |  |  | < 1e-05 s⁻¹ |
| A52U G59U C70G | < 1e-05 s⁻¹ |  |  | < 1e-05 s⁻¹ | < 1e-05 s⁻¹ |
| A52U G62U | < 1e-05 s⁻¹ | < 1e-05 s⁻¹ |  | < 1e-05 s⁻¹ | < 1e-05 s⁻¹ |

| Variant | self-cleavage kobs at 40 uM GlcN6P [1] | self-cleavage kobs at 640 uM GlcN6P [2] | self-cleavage kobs at 160 uM GlcN6P [3] | self-cleavage kobs at 2500 uM GlcN6P [4] | self-cleavage kobs at 10000 uM GlcN6P [5] |
| --- | --- | --- | --- | --- | --- |
| A52U U54G U56G U57C | < 1e-05 s⁻¹ |  |  | < 1e-05 s⁻¹ | < 1e-05 s⁻¹ |
| A53C C58G | < 1e-05 s⁻¹ |  |  |  |  |
| A53C G60A | < 1e-05 s⁻¹ |  | < 1e-05 s⁻¹ |  |  |
| A53C G60C | < 1e-05 s⁻¹ | < 1e-05 s⁻¹ | < 1e-05 s⁻¹ |  |  |
| A53C G60U G62C U69G | < 1e-05 s⁻¹ |  |  |  |  |
| A53G G60C C70G | < 1e-05 s⁻¹ |  |  |  | < 1e-05 s⁻¹ |
| A53G U55C | 0.000669 ± 7.9e-05 s⁻¹ | 0.00872 ± 0.0013 s⁻¹ | 0.00157 ± 0.00027 s⁻¹ | 0.0106 ± 0.0024 s⁻¹ | 0.0167 ± 0.0032 s⁻¹ |
| A53U C67A | 0.000214 ± 2.6e-05 s⁻¹ | 0.0014 ± 0.00022 s⁻¹ | 0.000559 ± 8.4e-05 s⁻¹ |  |  |
| U54A C61U G62A | < 1e-05 s⁻¹ | < 1e-05 s⁻¹ |  |  | < 1e-05 s⁻¹ |
| U54A G59C | < 1e-05 s⁻¹ | < 1e-05 s⁻¹ | < 1e-05 s⁻¹ |  |  |
| U54A U65G | 5.78e-05 ± 9.8e-06 s⁻¹ | 0.000927 ± 0.00015 s⁻¹ | 0.000211 ± 3.9e-05 s⁻¹ | 0.001 ± 0.00025 s⁻¹ | 0.00358 ± 0.00043 s⁻¹ |
| U54C G60C | < 1e-05 s⁻¹ |  | < 1e-05 s⁻¹ | < 1e-05 s⁻¹ | < 1e-05 s⁻¹ |
| U54C U56A | 0.000356 ± 6.9e-05 s⁻¹ | 0.00291 ± 0.00036 s⁻¹ | 0.000584 ± 0.00011 s⁻¹ | 0.00483 ± 0.00092 s⁻¹ | 0.0163 ± 0.0038 s⁻¹ |
| U55C G60C | < 1e-05 s⁻¹ |  |  |  | < 1e-05 s⁻¹ |
| U55C G63U | < 1e-05 s⁻¹ |  |  |  |  |
| U55G U57G C67U | < 1e-05 s⁻¹ |  |  |  |  |
| U56A A64U | < 1e-05 s⁻¹ |  |  |  |  |
| U56A C68U | 0.000143 ± 2.2e-05 s⁻¹ | 0.000955 ± 0.00014 s⁻¹ | 0.000404 ± 8.3e-05 s⁻¹ |  |  |
| U56A G60A | < 1e-05 s⁻¹ |  |  |  |  |
| U56A U57G | < 1e-05 s⁻¹ |  |  |  |  |
| U56A U65G | 3.75e-05 ± 1.4e-05 s⁻¹ | 0.000348 ± 0.00011 s⁻¹ |  |  | 0.00196 ± 0.00027 s⁻¹ |
| U56C C70G | < 1e-05 s⁻¹ | < 1e-05 s⁻¹ |  |  |  |
| U56C U57A | < 1e-05 s⁻¹ |  |  |  |  |
| U56G G63U | < 1e-05 s⁻¹ |  |  |  |  |
